# According to PubChem BioAssay AID624417 (National Center for Advancing Translational Sciences (NCATS), 2012):
# Screen size: about 410,000 compounds; about 6,400 (1.6%) were called active. The inconclusive results got no clear call from the source; some entries with a clear call stand among them for comparison. Calls come from the whole dose curve; as a rule, active = well fitted inhibition curve with a large enough effect; inconclusive = small, poorly fitted or top-dose-only effect; inactive = no such curve, though single readings can be large or run the other way. Potencies of inconclusive entries are left out as doubtful fits.
# Biological target: Glucagon-like peptide 1 receptor (Homo sapiens) (UniProt P43220)
# Assay: qHTS of GLP-1 Receptor Inverse Agonists (Inhibition Mode); note: nearly all actives have a fitted effect of over 55% in size
# Conditions: HEK293 GLP-1R CRE-luciferase, luminescence, 24 h, GLP-1R form is constitutively active; series mostly up to 38.3 µM
# Method in brief: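 Constitutively active GLP-1R drives a cAMP-responsive luciferase in stably transfected HEK293 cells; test compounds are added after overnight (12 h) attachment and left 24 hr, and signal loss in luminescence marks inhibition.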
# Potency is the fitted concentration of half-maximal effect; tags give direction and shape of the fitted curve.
# Chain of UniProt P43220 (P43220 whole entry, looked up): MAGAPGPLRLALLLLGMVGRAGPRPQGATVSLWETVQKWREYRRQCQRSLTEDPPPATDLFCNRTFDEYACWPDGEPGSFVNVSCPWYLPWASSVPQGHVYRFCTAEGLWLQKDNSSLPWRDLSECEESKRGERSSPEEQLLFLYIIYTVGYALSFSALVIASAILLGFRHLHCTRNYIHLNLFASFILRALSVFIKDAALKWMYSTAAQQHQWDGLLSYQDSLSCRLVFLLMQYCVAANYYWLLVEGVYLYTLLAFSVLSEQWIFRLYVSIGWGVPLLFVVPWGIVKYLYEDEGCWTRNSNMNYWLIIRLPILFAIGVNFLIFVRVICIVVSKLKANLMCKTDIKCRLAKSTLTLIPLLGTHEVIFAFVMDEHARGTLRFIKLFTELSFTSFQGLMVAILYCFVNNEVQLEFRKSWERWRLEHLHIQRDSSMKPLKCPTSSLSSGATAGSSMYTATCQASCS
row,SMILES,Potency
1,Cn1c(-c2ccc(Br)cc2)cnc1NCc1ccc(C#N)cc1,"inconclusive [inhibitor, single point]"
2,NC(=O)c1ccccc1NC(=O)C(c1ccccc1)c1ccccc1,"inconclusive [inhibitor, partial curve, poor fit]"
3,COc1cccc(N2CCN(C(=O)c3cccn3-c3nnc(N4CCCC4)s3)CC2)c1,inactive
4,S=C(Nc1cccc2ccccc12)Nc1cccc2ccccc12,"inconclusive [inhibitor, single point]"
5,O=S(=O)(c1cccs1)N1CCN(CCOc2ccc(Cl)cc2)CC1,"inconclusive [inhibitor, single point]"
6,O=C(Nc1ncc2c(n1)-c1ccccc1CC2)c1ccc(Cl)cc1,"inconclusive [inhibitor, single point]"
7,CCOC(=O)c1cc(-c2ccccc2)sc1NC(=O)C(C)N1C(=O)NC(C)(c2ccc(Cl)cc2)C1=O (stereo not drawn),active: 5.62 µM
8,COc1ccc(NC(=O)C2CCCN(S(=O)(=O)c3ccc4c(c3)oc(=O)n4C)C2)c(OC)c1 (stereo not drawn),"inconclusive [inhibitor, full curve, poor fit]"
9,Cc1cccc(CSc2nc(-c3cccs3)ccc2C#N)c1,"inconclusive [inhibitor, single point]"
10,COc1ccc(CCN2C(=O)c3[nH]nc(-c4ccccc4O)c3C2c2cccc(Cl)c2)cc1 (stereo not drawn),"inconclusive [inhibitor, partial curve, poor fit]"
11,CC(C)(C)n1nnnc1CN1CCN(C(c2ccccc2)c2ccccc2)CC1,"inconclusive [inhibitor, partial curve, poor fit]"
12,COc1ccccc1S(=O)(=O)c1ccccc1[N+](=O)[O-],inactive
13,Cc1ccccc1N1CCN(C2CCCN(C(=O)c3cc(CC(C)C)nn3C)C2)CC1 (stereo not drawn),"inconclusive [inhibitor, partial curve, poor fit]"
14,COc1cccc(-c2nc(-c3ccccc3)nc(N3CCN(C)CC3)c2C#N)c1,"inconclusive [inhibitor, single point]"
15,Cc1ccc2[nH]c(C(=O)N3CCCC(Nc4ccc(F)cc4)C3)cc2c1 (stereo not drawn),"inconclusive [inhibitor, partial curve, poor fit]"
16,CCc1ccc(OCC(=O)N(Cc2ccc(C)o2)C2CCS(=O)(=O)C2)cc1 (stereo not drawn),inactive
17,Cc1ccc(S(=O)(=O)N(CC(=O)NCCc2ccc(Cl)cc2)c2ccccc2C)cc1,"inconclusive [inhibitor, single point]"
18,CCOc1ccc(C2=NNC(c3cccs3)=Nc3ccc(OC)cc32)cc1,"inconclusive [inhibitor, partial curve, poor fit]"
19,CCc1ccccc1NC(=O)N1CCc2c([nH]c3ccccc23)C1c1ccc(C)cc1 (stereo not drawn),"inconclusive [inhibitor, partial curve, poor fit]"

row,SMILES,Potency
1,CSc1nccc(NC(=O)c2ccc(C(C)(C)C)cc2)n1,"inconclusive [inhibitor, single point]"
2,Cn1c(=O)n(CCc2ccccc2)c(=O)c2c1nc1n2CCN1Cc1ccco1,"inconclusive [inhibitor, single point]"
3,CC(=O)N1CCN(c2ncnc3ccccc23)CC1,"inconclusive [inhibitor, full curve]"
4,COc1cccc(C(c2c(NC(=O)c3ccco3)sc(C)c2C)N2CCOCC2)c1 (stereo not drawn),"inconclusive [inhibitor, single point]"
5,CC1CCN(C(=S)SCc2nc(N)nc(Nc3ccccc3)n2)CC1,"inconclusive [inhibitor, single point]"
6,Cc1c(NC(=O)CSc2nnc3c4ccccc4n(CCc4ccccc4)c3n2)c(=O)n(-c2ccccc2)n1C,"inconclusive [inhibitor, full curve]"
7,COc1ccc(CCNC(=O)c2cnn(-c3ccc(F)cc3)c2C2CCN(C(=O)OC(C)(C)C)CC2)c(OC)c1,"inconclusive [inhibitor, single point]"
8,COc1ccc(N2CCN(c3ncnc4scc(-c5ccc(F)cc5)c34)CC2)cc1,"inconclusive [inhibitor, full curve]"
9,O=C(Nc1ccc2c(c1)OCCO2)C(c1cc2ccccc2o1)N1CCN(c2ccc(C(F)(F)F)cn2)CC1 (stereo not drawn),"inconclusive [inhibitor, partial curve]"
10,CCOc1ccc(S(=O)(=O)n2cc(-c3ccc(F)cc3)c(N)n2)cc1,"inconclusive [inhibitor, partial curve, poor fit]"
11,O=S(=O)(NC1CCN(Cc2ccccc2)CC1)c1ccc(Cl)cc1,"inconclusive [inhibitor, partial curve, poor fit]"
12,CC(C)OC(=O)c1c(NC(=O)c2ccco2)sc2c1CCCCC2,"inconclusive [inhibitor, single point]"
13,CSc1ccc(Cl)c(C(=O)NCCOc2cc(C)ccc2C(C)C)c1,"inconclusive [inhibitor, partial curve, poor fit]"
14,CCOC(=O)C1(CCCc2ccccc2)CCN(C(=O)c2cnn(CC)c2)CC1,"inconclusive [inhibitor, single point]"
15,CCCOc1ccc(C(F)(F)F)cc1NC(=O)CCc1c(C)noc1C,"inconclusive [inhibitor, single point]"
16,O=C(COC(=O)CNC(=O)c1ccccc1F)NC12CC3CC(CC(C3)C1)C2,inactive
17,COc1cccc(/C=N/N2CCN(c3ccccc3OC)CC2)c1,"inconclusive [inhibitor, single point]"
18,CCCCNC(=O)c1cc2c(C)cc(C)cc2[nH]1,"inconclusive [inhibitor, partial curve, poor fit]"
19,Cc1ccc(C)c(NS(=O)(=O)c2cc(C(=O)NCc3ccccn3)ccc2C)c1,"inconclusive [inhibitor, single point]"
